Experimental data taken from PubChem BioAssay AID938 (National Center for Advancing Translational Sciences (NCATS), 2007).
About 1,800 (2.5%) of roughly 73,000 compounds were called active. The shares of active, inactive and inconclusive entries below differ from those in the screen. Calls follow the shape of the dose curve; as a rule, active = well fitted activation curve with a large enough effect; inconclusive = small, poorly fitted or top-dose-only effect; inactive = no such curve, though single readings can be large or run the other way. No potency is given beside an inconclusive call; the fits are too rough.

Assay: qHTS Assay for Agonists of the Thyroid Stimulating Hormone Receptor: Activators of Intracellular cAMP Concentrations in Parental HEK 293; also: nearly all actives have a fitted effect of over 55% in size
Conditions: parental HEK293 CNG cAMP sensor, membrane potential fluorescence; series mostly up to 57.1 µM
In short: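 Parental HEK 293 cells stably expressing a modified CNG channel (no TSHR) report cAMP rise as membrane depolarization. Membrane potential dye with 100 uM RO 20-1724 was loaded for 60 min at room temperature, then compound added for 30 min; fluorescence read at 590 nm.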
Potency is read from the fitted curve at half-maximal effect; tags tell the direction and shape of the fitted curve.

Row | Compound | Potency
1 | COc1ccccc1NC(=O)C1C2CCCCC21 (stereo not given) | inconclusive [activator, single point]
2 | CCOC(=O)Nc1ccc2c(c1)N(C(=O)N1CCN(C)CC1)c1ccccc1S2 | inactive
3 | O=c1c2c3nc4ccccc4nc3n(CC3CCCO3)c2ncn1CCc1ccccc1 (stereo not given) | inconclusive [activator, partial curve]
4 | COc1ccccc1NC(=O)c1ccc(N)cc1 | inconclusive [activator, single point]
5 | COc1ccc(OC)c(S(=O)(=O)N2c3cc(F)ccc3CCC2C)c1 (stereo not given) | inconclusive [activator, partial curve]
6 | COc1cc2c(cc1OC)-c1c(OC)c(OC)cc3ccnc(c13)C2=O | inactive
7 | Cc1nc(SCC(=O)Nc2cc(C)on2)c2c3c(sc2n1)CCCC3 | inconclusive [activator, single point]
8 | COc1cccc(C2CC(=O)N3CN(c4cccc(Cl)c4C)CSC3=C2C#N)c1OC (stereo not given) | inconclusive [activator, single point]
9 | CC1CCN(C(=O)Cn2cc(C(=O)c3ccco3)c3ccccc32)CC1 | active: 20 µM
10 | Cc1cc(C(=O)COc2ncnc3sccc23)c(C)n1C | inconclusive [activator, single point]
11 | Cc1ccc(O)c(-c2cc(C(F)(F)C(F)F)[nH]n2)c1 | inactive
12 | Cc1ccccc1-c1nc(-c2cccnc2)no1 | inconclusive [activator, partial curve]
13 | COc1ccc(C2=NO[C@@H]3C(=O)N(C4CCCCC4)C(=O)[C@H]23)cc1OC | inconclusive [activator, single point]
14 | COC(=O)[C@@H]1C[C@@]1(C)[C@@H](NC(=O)OCc1ccccc1)c1ccccc1 | inconclusive [activator, single point]
15 | Cc1c(C)[n+](=O)c(-c2ccc(F)cc2)c(C)n1[O-] | inconclusive [activator, partial curve]
16 | CCOC(=O)C1CCN(c2nc3cc(OC)ccc3cc2C#N)CC1 | inconclusive [activator, single point]
17 | CCN1CCN(C(=O)c2cc3c(=O)n4ccccc4nc3n2Cc2ccccc2)CC1 | inactive
18 | COc1ccc(N(CC(=O)Nc2cc(C(=O)O)ccc2C)S(=O)(=O)c2c(C)noc2C)cc1 | inactive
19 | CC(C)NC(=O)c1cc(-c2ccco2)on1 | inconclusive [activator, single point]
20 | COc1cccc(Cn2c(=O)c(-c3ccc(Cl)cc3)nc3cnc(N4CCNCC4)nc32)c1 | inactive
